{
  "source": "the antibiotic and cytotoxicity screens of Wong et al. (2023)",
  "note": "Some of the results follow.",
  "data": [
    {"tested_on": "HSkMC (human skeletal muscle cells)", "experiment": "cytotoxicity call (relative viability < 0.9)", "conditions": "10 µM", "values": [
      {"smiles": "O=C(C[C@@H]1C=C[C@H](NC(=O)C2CCC2)[C@H](CO)O1)NCCCN1CCOCC1", "cytotoxicity call": "inactive"},
      {"smiles": "N#Cc1ccccc1C#CCO", "cytotoxicity call": "inactive"},
      {"smiles": "COC[C@@H]1CNN1C(=O)OC(C)(C)C", "cytotoxicity call": "inactive"}
    ]},
    {"tested_on": "HepG2", "experiment": "cytotoxicity call (relative viability < 0.9)", "conditions": "10 µM", "values": [
      {"smiles": "C[C@@H]1CN([C@@H](C)CO)C(=O)c2cccc(NC(=O)NC3CCCCC3)c2O[C@@H]1CN(C)C(=O)Nc1ccc(C(F)(F)F)cc1", "cytotoxicity call": "inactive"},
      {"smiles": "COc1ccc(S(=O)(=O)N(C)C[C@H]2Oc3c(NS(=O)(=O)c4ccc(C)cc4)cccc3C(=O)N([C@@H](C)CO)C[C@@H]2C)cc1", "cytotoxicity call": "inactive"},
      {"smiles": "Cc1ccc(S(=O)(=O)Nc2ccc3c(c2)C(=O)N([C@@H](C)CO)C[C@H](C)[C@@H](CN(C)S(C)(=O)=O)OCCCC[C@H](C)O3)cc1", "cytotoxicity call": "inactive"},
      {"smiles": "Cc1ccccc1S(=O)(=O)N1C[C@@H](O)COC[C@@H]2O[C@H](CC(=O)NCCc3ccncc3)CC[C@H]21", "cytotoxicity call": "inactive"},
      {"smiles": "Cc1noc(C)c1NC(=O)Nc1ccc2c(c1)C(=O)N([C@H](C)CO)C[C@@H](C)[C@@H](CN(C)S(=O)(=O)c1cccs1)OCCCC[C@@H](C)O2", "cytotoxicity call": "inactive"},
      {"smiles": "O=C(O)C[C@@H](O)C(=O)O", "cytotoxicity call": "inactive"},
      {"smiles": "C[C@@H]1CN([C@@H](C)CO)S(=O)(=O)c2ccc(C#CC3(O)CCCC3)cc2O[C@@H]1CN(C)C(=O)Cc1cccnc1", "cytotoxicity call": "inactive"},
      {"smiles": "C=CC[C@H](CC(=O)NCCO)C(=O)N[C@@H](COC(=O)[C@H](CC=C)CC(=O)OC(C)(C)C)Cc1ccccc1", "cytotoxicity call": "inactive"},
      {"smiles": "Cc1ccc(S(=O)(=O)N(C)C[C@H]2OCCCC[C@H](C)Oc3ccc(NS(=O)(=O)c4ccc(Cl)cc4)cc3C(=O)N([C@@H](C)CO)C[C@@H]2C)cc1", "cytotoxicity call": "active"},
      {"smiles": "CC(C)C[C@H](NC(=O)[C@H](CCCCN)NC(=O)[C@H](CCCNC(=N)N)NC(=O)[C@H](C)NC(=O)[C@H](CO)NC(=O)[C@H](CCCCN)NC(=O)[C@H](CCCNC(=N)N)NC(=O)[C@H](C)NC(=O)CNC(=O)[C@@H](NC(=O)[C@H](Cc1ccccc1)NC(=O)CNC(=O)CNC(=O)[C@@H](N)Cc1ccccc1)[C@@H](C)O)C(=O)N[C@@H](C)C(=O)N[C@@H](CC(N)=O)C(=O)N[C@@H](CCC(N)=O)C(=O)O", "cytotoxicity call": "inactive"},
      {"smiles": "Cc1nnc(=O)[nH]c1NNc1ccccc1", "cytotoxicity call": "inactive"},
      {"smiles": "O=C(N[C@H](c1ccc(F)cc1)c1ccc2ccccc2n1)C1CCN(CCOc2ccc(Cl)cc2)CC1", "cytotoxicity call": "inactive"},
      {"smiles": "COc1ccc(S(=O)(=O)N[C@@H]2C=C[C@@H](CC(=O)NCCc3ccncc3)O[C@H]2CO)cc1", "cytotoxicity call": "inactive"},
      {"smiles": "COc1ccc(NC(=O)N(C)C[C@@H]2Oc3c(NC(=O)c4ccc(-c5nccs5)cc4)cccc3C(=O)N([C@@H](C)CO)C[C@H]2C)cc1", "cytotoxicity call": "inactive"},
      {"smiles": "CCS(=O)(=O)N1C[C@]2(CN(Cc3cc(ccc3F)F)C2)c2c(n(c3cc(ccc23)OC)C)[C@@H]1CO", "cytotoxicity call": "inactive"},
      {"smiles": "C[C@@H]1CN([C@@H](C)CO)C(=O)c2cc(NC(=O)c3ccncc3)ccc2O[C@@H](C)CCCCO[C@H]1CN(C)S(C)(=O)=O", "cytotoxicity call": "inactive"},
      {"smiles": "COc1ccc(NC(=O)N(C)C[C@@H]2Oc3c(NC(=O)CCCCCC(=O)Nc4ccccc4N)cccc3C(=O)N([C@@H](C)CO)C[C@@H]2C)cc1", "cytotoxicity call": "inactive"},
      {"smiles": "C[C@@H]1CN([C@H](C)CO)C(=O)CCCn2nncc2CO[C@@H]1CN(C)C(=O)Nc1ccc(N2CCCCC2)cc1", "cytotoxicity call": "inactive"},
      {"smiles": "C[C@H](CO)N1C[C@H](C)[C@H](CN(C)S(=O)(=O)c2cn(C)cn2)Oc2c(NC(=O)c3nc4ccccc4s3)cccc2C1=O", "cytotoxicity call": "inactive"},
      {"smiles": "C[C@@H]1CN([C@H](C)CO)C(=O)Cc2cc(NC(=O)c3ccncc3)ccc2O[C@H]1CN(C)S(=O)(=O)c1cccs1", "cytotoxicity call": "inactive"},
      {"smiles": "Clc1ccc(-c2cc[nH]n2)cc1", "cytotoxicity call": "inactive"},
      {"smiles": "CNC[C@@H]1OCCCC[C@@H](C)Oc2ccc(NS(=O)(=O)c3c(C)noc3C)cc2C(=O)N([C@@H](C)CO)C[C@H]1C", "cytotoxicity call": "inactive"},
      {"smiles": "COc1ccc(NC(=O)Nc2ccc3c(c2)C(=O)N([C@@H](C)CO)C[C@@H](C)[C@@H](CN(C)Cc2ccc(Cl)c(Cl)c2)OCCCC[C@@H](C)O3)cc1", "cytotoxicity call": "active"},
      {"smiles": "Cc1ccc(S(=O)(=O)N(C)C[C@@H]2OCCCC[C@@H](C)Oc3ccc(NC(=O)Nc4ccc5c(c4)OCO5)cc3C(=O)N([C@@H](C)CO)C[C@@H]2C)cc1", "cytotoxicity call": "inactive"},
      {"smiles": "C[C@H]1CN([C@@H](C)CO)C(=O)c2cc(-c3cccc(C(=O)N(C)C)c3)cnc2O[C@@H]1CN(C)S(=O)(=O)c1ccccc1", "cytotoxicity call": "inactive"}
    ]}
  ]
}
